# The campaign covered roughly 360,000 compounds. About 740 (0.21%) were called active. This list was built around the results that the source calls inconclusive (neither active nor inactive); the mix of calls is not that of the screen. Calls come from the whole dose curve; as a rule, active = well fitted inhibition curve with a large enough effect; inconclusive = small, poorly fitted or top-dose-only effect; inactive = no such curve, though single readings can be large or run the other way. Potencies of inconclusive entries are left out as doubtful fits.
# Tested on: Plasmodium falciparum AMA1 (3D7) - RON2 peptide interaction
# Assay: qHTS for Inhibitors of AMA1-RON; Towards Development of Antimalarial Drug Lead: Primary Screen; note: nearly all actives have a fitted effect of over 45% in size
# Conditions: AlphaScreen AMA1-biotinylated RON2 peptide binding; series mostly up to 58.2 µM
# How it was run: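 AMA1 (3D7) with his tag at 25 nM final met compounds first, then biotinylated RON2 peptide at 25 nM; detection used donor plus acceptor beads, 10 µg/mL apiece, read by AlphaScreen after 30 min at room temperature.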
# Potency is the fitted concentration of half-maximal effect; tags give direction and shape of the fitted curve.
row,Compound,Potency
1,Cc1cc(/C=C(\C#N)C(=O)NCc2ccco2)c(C)n1C1CCCC1,"inconclusive [inhibitor, single point]"
2,CCOc1cc(CN2CCN(c3ccc(C(C)=O)cc3)CC2)ccc1OC,"inconclusive [inhibitor, partial curve]"
3,CCN(CC)CCOC(=O)c1ccc(N/C=C(/C#N)c2nc(-c3ccc4c(c3)OCO4)cs2)cc1,"inconclusive [inhibitor, partial curve]"
4,COc1ccccc1OCC#CCN1CCCCCC1,"inconclusive [inhibitor, single point]"
5,CSc1nc(-c2ccco2)nn1S(C)(=O)=O,"inconclusive [inhibitor, full curve]"
6,CSc1cccc(NC(=S)N2CCCN(Cc3ccccc3F)C2)c1,inactive
7,C[C@H](NC(=O)c1ccco1)C(=O)N1CCN(c2ccc(C(F)(F)F)cn2)CC1,inactive
8,CN(C)c1ccc(-c2nc3cnccn3c2Nc2ccc3c(c2)OCCO3)cc1,"inconclusive [inhibitor, single point]"
9,CN(C)c1ccc(-c2ccnc3c2CC(C)(C(=O)NCc2cccs2)O3)cc1 (configuration not stated),"inconclusive [inhibitor, partial curve]"
10,COc1ccc(CNC(=O)CNS(=O)(=O)c2ccc(Cl)cc2)cc1,"inconclusive [inhibitor, full curve, poor fit]"
11,CN(C)c1cccc(Nc2ccc(-c3ccc(OC(F)(F)F)cc3)cn2)c1,"inconclusive [inhibitor, partial curve]"
12,COc1ccc(C(=O)COC(=O)CNS(=O)(=O)c2ccc(C)cc2)cc1,"inconclusive [inhibitor, partial curve, poor fit]"
13,CCC(=O)c1ccccc1OCCN1CCN(CC)CC1,"inconclusive [inhibitor, single point]"
14,CC(C)(C)c1ccc(C(=O)Nn2cnnc2)cc1,inactive
15,CN(C)c1ccc(-n2cccc2/C=C/[N+](=O)[O-])cc1,active: 7.08 µM
16,Cc1cccc(NC(=O)COC(=O)c2c(-c3ccccc3)noc2C)c1,inactive
17,CSC1=C(C#N)C(=O)NC(c2ccc(Cl)cc2)S1 (configuration not stated),inactive
18,CCOC(=O)c1cn2nc(Oc3cccc(C(F)(F)F)c3)ccc2n1,inactive
19,O=C(Nc1ccc2ncccc2c1)c1ccccc1Br,inactive
20,Cc1nc2ccccc2c(=O)n1/N=C/c1cc(Br)cc(Br)c1O,"inconclusive [inhibitor, partial curve, poor fit]"
21,CCOC(=O)Cn1c(-c2ccc(OC)cc2)c(-c2ccc(OC)cc2)nnc1=O,"inconclusive [inhibitor, partial curve]"

row,Compound,Potency
1,Cc1ccc2c(c1)C1CN(C)CCC1N2S(=O)(=O)c1ccc(Oc2ccc([N+](=O)[O-])cc2)cc1 (configuration not stated),"inconclusive [inhibitor, partial curve]"
2,Clc1cccc(CN2CCSCC2)c1Cl,"inconclusive [inhibitor, partial curve]"
3,CCC(=O)NC(c1cccs1)c1cc([N+](=O)[O-])c2cccnc2c1O (configuration not stated),"inconclusive [inhibitor, partial curve]"
4,Cc1cc(NC(=O)COC(=O)COc2ccc(Cl)cc2C)c([N+](=O)[O-])cc1C,"inconclusive [inhibitor, partial curve]"
5,Cc1ccc(S(=O)(=O)Nc2ccccc2N=Cc2ccc([N+](=O)[O-])cc2[N+](=O)[O-])cc1,"inconclusive [inhibitor, partial curve]"
6,C=CCNc1nc(-c2ccc(OC)cc2OC)cs1,"inconclusive [inhibitor, single point]"
7,O=C(N/N=C/c1ccc(OC(=O)c2ccccc2Cl)cc1)c1cc(O)cc(O)c1,"inconclusive [inhibitor, partial curve]"
8,COC/C=C/C1=CC2=CC(=O)C(C)(OC(=O)C3CCCC3)C(=O)C2=CO1 (configuration not stated),"inconclusive [inhibitor, single point]"
9,COc1ccc(N2CCN(C(=O)CSc3ccc([N+](=O)[O-])cc3)CC2)cc1,"inconclusive [inhibitor, full curve, poor fit]"
10,COc1ccc(CN2CCN(Cc3ccccc3F)CC2)cc1,"inconclusive [inhibitor, partial curve]"
11,Cc1ccccc1C(=O)Nc1cccc(C(=O)N/N=C/c2cc(Cl)cc([N+](=O)[O-])c2O)c1,"inconclusive [inhibitor, partial curve]"
12,CN(CC(=O)Nc1ccc(N2CCOCC2)cc1)C(=O)CCc1cc(C(C)(C)C)c(O)c(C(C)(C)C)c1,"inconclusive [inhibitor, single point]"
13,O=C(CSc1nc2ccccc2c(=O)[nH]1)Nc1ccc(C(=O)O)cc1,"inconclusive [inhibitor, partial curve]"
14,Cc1cc(C)c2sc(N(CCCN(C)C)C(=O)c3ccc(S(=O)(=O)N4CCCc5ccccc54)cc3)nc2c1,"inconclusive [inhibitor, single point]"
15,CS(=O)(=O)c1ccc2nc(NC(=O)C3CCCO3)sc2c1 (configuration not stated),"inconclusive [inhibitor, partial curve]"
16,CCN1/C(=N\N)c2cccc3cccc1c23,"inconclusive [inhibitor, partial curve]"
17,CCN(CC)C(=O)C1CCCN(Cc2ccc(N(C)C)cc2)C1 (configuration not stated),"inconclusive [inhibitor, partial curve]"
18,CCc1cccc2c(C(=O)CN3C(=O)NC(C)(c4cccc5ccccc45)C3=O)c[nH]c12 (configuration not stated),inactive
19,O=c1n(-c2ccccc2)c(=O)n2n1CCCC2,"inconclusive [inhibitor, single point]"
20,CCCCOc1ccc(C(=O)NCC(=O)NCC2CCCO2)cc1 (configuration not stated),inactive
21,COc1ccc(C2CC(=O)Oc3c(C(CCN4CCN(c5ccccc5)CC4)c4ccc(N(C)C)cc4)c(OC)cc(OC)c32)cc1 (configuration not stated),active: 11.2 µM

# From PubChem BioAssay AID720542 (National Center for Advancing Translational Sciences (NCATS), 2013)
